# Paper PMC9911399, “Two distinct binding modes provide the RNA-binding protein RbFox with extraordinary sequence specificity”
# Numbering of substitutions follows the chain as printed; changes in the protein carry UniProt numbers. Some of the results follow.
# B1: GAGAACA (DNA:RNA)
# RNA: GGGAGACCGGAAUUCAGAUUGUCCGAGAACAUUAAAUCCCGUCGUAGCCACCA
# DNA 1: CAATCTGAATTCCGGTCTCCC
# DNA 2: TGGTGGCTACGACGGGATT
# B2: CGUGGGU (DNA:RNA)
# RNA: GGGAGACCGGAAUUCAGAUUGUCCCGUGGGUUUAAAUCCCGUCGUAGCCACCA
# DNA 1: CAATCTGAATTCCGGTCTCCC
# DNA 2: TGGTGGCTACGACGGGATT
# B3: CGCGUUG (DNA:RNA)
# RNA: B2 RNA with U27C, G29U, G30U, U31G
# DNA 1: CAATCTGAATTCCGGTCTCCC
# DNA 2: TGGTGGCTACGACGGGATT
# B4: ACGCGAG (DNA:RNA)
# RNA: B2 RNA with C25A, G26C, U27G, G28C, G30A, U31G
# DNA 1: CAATCTGAATTCCGGTCTCCC
# DNA 2: TGGTGGCTACGACGGGATT
# B5: UGGGGAG (DNA:RNA)
# RNA: B2 RNA with C25U, U27G, G30A, U31G
# DNA 1: CAATCTGAATTCCGGTCTCCC
# DNA 2: TGGTGGCTACGACGGGATT
# B6: ACUCAAC (DNA:RNA)
# RNA: B2 RNA with C25A, G26C, G28C, G29A, G30A, U31C
# DNA 1: CAATCTGAATTCCGGTCTCCC
# DNA 2: TGGTGGCTACGACGGGATT
# B7: AAGUUGA (DNA:RNA)
# RNA: B1 RNA with G25A, A28U, A29U, C30G
# DNA 1: CAATCTGAATTCCGGTCTCCC
# DNA 2: TGGTGGCTACGACGGGATT
# B8: GUAAAGC (DNA:RNA)
# RNA: B1 RNA with A26U, G27A, C30G, A31C
# DNA 1: CAATCTGAATTCCGGTCTCCC
# DNA 2: TGGTGGCTACGACGGGATT
# B9: GCGACUC (DNA:RNA)
# RNA: B1 RNA with A26C, A29C, C30U, A31C
# DNA 1: CAATCTGAATTCCGGTCTCCC
# DNA 2: TGGTGGCTACGACGGGATT
# B10: CAACCUC (DNA:RNA)
# RNA: B2 RNA with G26A, U27A, G28C, G29C, G30U, U31C
# DNA 1: CAATCTGAATTCCGGTCTCCC
# DNA 2: TGGTGGCTACGACGGGATT
# B11: GGUUGAC (DNA:RNA)
# RNA: B2 RNA with C25G, G28U, G30A, U31C
# DNA 1: CAATCTGAATTCCGGTCTCCC
# DNA 2: TGGTGGCTACGACGGGATT
# B12: GUGAUCG (DNA:RNA)
# RNA: B1 RNA with A26U, A29U, A31G
# DNA 1: CAATCTGAATTCCGGTCTCCC
# DNA 2: TGGTGGCTACGACGGGATT
# B13: CCACGCU (DNA:RNA)
# RNA: B2 RNA with G26C, U27A, G28C, G30C
# DNA 1: CAATCTGAATTCCGGTCTCCC
# DNA 2: TGGTGGCTACGACGGGATT
# B14: AUCGACA (DNA:RNA)
# RNA: B1 RNA with G25A, A26U, G27C, A28G
# DNA 1: CAATCTGAATTCCGGTCTCCC
# DNA 2: TGGTGGCTACGACGGGATT
# B15: UCUGUAG (DNA:RNA)
# RNA: B2 RNA with C25U, G26C, G29U, G30A, U31G
# DNA 1: CAATCTGAATTCCGGTCTCCC
# DNA 2: TGGTGGCTACGACGGGATT
# B16: AGGGAGG (DNA:RNA)
# RNA: B2 RNA with C25A, U27G, G29A, U31G
# DNA 1: CAATCTGAATTCCGGTCTCCC
# DNA 2: TGGTGGCTACGACGGGATT
# B17: CACAUCU (DNA:RNA)
# RNA: B1 RNA with G25C, G27C, A29U, A31U
# DNA 1: CAATCTGAATTCCGGTCTCCC
# DNA 2: TGGTGGCTACGACGGGATT
# B18: AUAGGUG (DNA:RNA)
# RNA: B2 RNA with C25A, G26U, U27A, G30U, U31G
# DNA 1: CAATCTGAATTCCGGTCTCCC
# DNA 2: TGGTGGCTACGACGGGATT
# B19: AUUUGCG (DNA:RNA)
# RNA: B2 RNA with C25A, G26U, G28U, G30C, U31G
# DNA 1: CAATCTGAATTCCGGTCTCCC
# DNA 2: TGGTGGCTACGACGGGATT
# B20: CCUUUAU (DNA:RNA)
# RNA: B2 RNA with G26C, G28U, G29U, G30A
# DNA 1: CAATCTGAATTCCGGTCTCCC
# DNA 2: TGGTGGCTACGACGGGATT
# Biological target: T1, RBFOX1 RRM RbFoxmut (Fox-RRM*) (Homo sapiens, UniProt Q9NWB1 109-208, R118D;E147R;N151S;E152T)
# T1 sequence: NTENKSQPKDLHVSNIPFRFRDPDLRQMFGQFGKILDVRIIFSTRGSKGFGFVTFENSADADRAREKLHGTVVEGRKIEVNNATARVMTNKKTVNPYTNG
# Experiment: EMSA; HiTS-Eq, 1 nM pool, 10 min; buffer printed only for the single-RNA assays: 10 mM Tris pH 7.5, 150 mM NaCl, 3.4 mM EDTA, 0.001% NP-40, 30 C
# Settings: tags: His6 N-terminal (pET28a); label: 5' 32P
# Outline: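 Purified RbFox RRM, wild type or mutant, was incubated for 10 min in 50 µL with 1 nM of a 5′-radiolabelled RNA pool carrying 7 randomized nucleotides, whose flanks were annealed to DNA oligonucleotides, over a series of increasing protein concentrations. Unbound RNA was resolved on 8% native PAGE, cut out, reverse-transcribed, barcoded by PCR and sequenced on an Illumina HiSeq 2500. Relative association constants were derived from changes in read counts for each RNA species versus the control reaction and normalised to the cognate motif.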
row,Binder,binding signal
1,B1,0.0771 KA relative to UGCAUGU
2,B2,0.129 KA relative to UGCAUGU
3,B3,0.139 KA relative to UGCAUGU
4,B4,0.132 KA relative to UGCAUGU
5,B5,0.135 KA relative to UGCAUGU
6,B6,0.034 KA relative to UGCAUGU
7,B7,0.107 KA relative to UGCAUGU
8,B8,0.0769 KA relative to UGCAUGU
9,B9,0.0666 KA relative to UGCAUGU
10,B10,0.055 KA relative to UGCAUGU
11,B11,0.102 KA relative to UGCAUGU
12,B12,0.32 KA relative to UGCAUGU
13,B13,0.0913 KA relative to UGCAUGU
14,B14,0.0866 KA relative to UGCAUGU
15,B15,0.106 KA relative to UGCAUGU
16,B16,0.134 KA relative to UGCAUGU
17,B17,0.0501 KA relative to UGCAUGU
18,B18,0.142 KA relative to UGCAUGU
19,B19,0.14 KA relative to UGCAUGU
20,B20,0.091 KA relative to UGCAUGU
